Screen size: about 310,000 compounds; about 18,000 (5.8%) were called active. The inconclusive results got no clear call from the source; some entries with a clear call stand among them for comparison. The call rests on the fitted dose curve; in most records, active means well fitted inhibition curve with a large enough effect; inconclusive means small, poorly fitted or top-dose-only effect, or another doubt; inactive means no such curve, though single readings can be large or run the other way. Potencies of inconclusive entries are left out as doubtful fits.
Assay: Primary qHTS for delayed death inhibitors of the malarial parasite plastid, 48 hour incubation
Details: P. falciparum luciferase growth in erythrocytes; series mostly up to 28.7 µM; activity change, negative = inhibition: at the top concentration
Procedure, shortened: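 Parasite viability was followed by luminescence of a genomically integrated firefly luciferase. Cultures held 0.1% parasitemia at 2% hematocrit (final), incubated under 5% CO2 at 37 C.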
On the % scale 0 is the no-effect control and ±100 the full control effect; potency means the concentration at half of the fitted maximal effect; tags describe the fitted curve by direction and shape.

Row | Structure (SMILES) | activity change, negative = inhibition | Potency
1 | C/C=C\c1ccc(OC)cc1 | inactive: -17% | –
2 | O=C(CN1CCN(S(=O)(=O)c2ccc(Br)cc2)CC1)Nc1ccccc1C(=O)c1ccccc1 | – | active: 13.1 µM
3 | Cc1ccc(S(=O)(=O)N/N=c2\oc3ccccc3cc2C(=O)Nc2cccc(C)c2)cc1 | inactive: -8.29% | –
4 | C[C@H]1C[C@@H]2[C@H]3CCC4=CC(=O)C=C[C@@]4(C)[C@@]3(Cl)[C@@H](O)C[C@]2(C)[C@]1(OC(=O)c1ccco1)C(=O)CCl | – | active: 4.55 µM
5 | CCN(CC)c1ccc(/C=N/NC(=O)c2c(Cl)cnn2C)c(O)c1 | – | inconclusive [inhibitor, single point]
6 | CCOc1ccc(C)cc1S(=O)(=O)NC1CCCCC1 | – | inconclusive [inhibitor, partial curve, poor fit]
7 | O=C(CSc1ccc(-c2cccc([N+](=O)[O-])c2)nn1)N1CCCCC1 | – | inconclusive [inhibitor, full curve, poor fit]
8 | COc1cc(NC(=S)NC(C)(C)C)c(OC)cc1Cl | – | inconclusive [inhibitor, full curve]
9 | Oc1cccc(/C=N/c2c(-c3ccco3)nc3ccccn23)c1 | – | inconclusive [inhibitor, full curve, poor fit]
10 | FC(F)(F)c1cnc(Sc2nc3nccc(-c4ccc(Cl)cc4)n3n2)c(Cl)c1 | – | inconclusive [inhibitor, full curve, poor fit]
11 | O=C(CCN1CCOCC1)Nc1cc(C(=O)Nc2ccccc2F)ccc1N1CC2CC(C1)c1cccc(=O)n1C2 (stereo unspecified) | – | inconclusive [inhibitor, single point]
12 | Cc1cccc(C(=O)OCC(=O)N(CC(C)C)c2c(N)n(Cc3ccccc3)c(=O)[nH]c2=O)c1C | – | inconclusive [inhibitor, single point]
13 | CCOC(=O)CSc1n[nH]c(-c2cccnc2)n1 | inactive: 11.4% | –
14 | CN(CC(=O)Nc1c(Cl)cccc1Cl)C(=O)c1ccccc1-c1nc2ccccc2s1 | – | inconclusive [inhibitor, single point]
15 | O=C(Nc1nnc(C2=COCCO2)o1)c1ccc([N+](=O)[O-])cc1 | – | inconclusive [inhibitor, single point]
16 | CC(C)c1nc(=S)n(-c2ccccc2)[nH]1 | inactive: 5.97% | –
17 | COCCCNc1nc(N)c([N+](=O)[O-])c(Nc2ccccc2OC)n1 | – | inconclusive [inhibitor, single point]
18 | Cc1cc(C)cc(NC(=O)N2CCCN(c3c(Cl)cncc3Cl)CC2)c1 | – | inconclusive [inhibitor, partial curve, poor fit]
19 | COC(=O)c1ccc(NC(=O)C2CCCN2S(=O)(=O)c2ccc(C)cc2)cc1 (stereo unspecified) | inactive: -11.9% | –
20 | COc1ccc(OC)c(S(=O)(=O)N2CCC3(CC2)OCCN3S(=O)(=O)c2ccccc2)c1 | – | inconclusive [inhibitor, single point]
21 | O=C(Cc1cccs1)Nc1cc(S(=O)(=O)N2CCCCC2)ccc1Cl | – | inconclusive [inhibitor, single point]
22 | O=c1cc(CN2CC(O)Cc3ccc4ccccc4c32)nc2sccn12 (stereo unspecified) | inactive: 13.6% | –
23 | COc1ccc(C2CC(c3ccc(Br)cc3)=NN2C(=O)CSC2=NN3CCCC(=O)N=C3S2)cc1 (stereo unspecified) | – | inconclusive [inhibitor, partial curve]
24 | COc1ccccc1C(=O)NC(CCSC)C(=O)N1CCN(C/C=C/c2ccccc2)CC1 (stereo unspecified) | – | inconclusive [inhibitor, partial curve]

Row | Structure (SMILES) | activity change, negative = inhibition | Potency
25 | CC(=O)N1c2ccc(S(=O)(=O)N3CCCCC3)cc2CC1C(=O)Nc1ccc(F)cc1C (stereo unspecified) | inactive: -20.1% | –
26 | CC(C)CN=c1cc(-c2ccccc2)oc2ccc(Cl)cc12 | – | inconclusive [inhibitor, full curve]
27 | CC(C(O)c1ccc(O)cc1)N1CCC(Cc2ccccc2)CC1 (stereo unspecified) | – | active: 2.13 µM
28 | C/C(=N\NC(=S)NC(C)C)c1ccco1 | – | inconclusive [inhibitor, single point]
29 | O=C(c1ccc(F)cc1)N1CCC(C(=O)N2CCN(S(=O)(=O)c3ccccc3Br)CC2)CC1 | – | inconclusive [inhibitor, single point]
30 | COc1cc2c(cc1OC)/C(=C/C(=O)c1cccc([N+](=O)[O-])c1)NCC2 | – | inconclusive [inhibitor, single point]
31 | COc1ccc(-n2c(C)cc(C(=O)CSc3nn4c(=O)c(C(C)(C)C)nnc4s3)c2C)cc1 | – | inconclusive [inhibitor, single point]
32 | Cc1ccc(S(=O)(=O)N2CCC(=O)N2)cc1 | inactive: 3.16% | –
33 | Cc1cc(NC(=O)CSc2nc3c(c(=O)n2-c2ccccc2)SC(C)C3)no1 (stereo unspecified) | – | inconclusive [inhibitor, full curve, poor fit]
34 | CC(OC(=O)C1=Cc2ccccc2OC1)C(=O)NC(C)(C)C (stereo unspecified) | inactive: 17.5% | –
35 | CCN(CC)CCNC(=O)c1ccc(NC(=O)c2ccc(Cl)c(S(=O)(=O)Nc3ccccc3OC)c2)cc1 | – | inconclusive [inhibitor, full curve, poor fit]
36 | O=C1CCC(C(=O)N2CCN(c3ccccc3Cl)CC2)CN1CC1CCCCC1 (stereo unspecified) | – | inconclusive [inhibitor, single point]
37 | O=S(=O)(c1ccc(Cl)c(C(F)(F)F)c1)N1CCN(CC(O)COc2ccccc2F)CC1 (stereo unspecified) | – | inconclusive [inhibitor, single point]
38 | O=C1NN(c2cccc(Br)c2)C(=O)/C1=C\c1ccccc1 | inactive: 33.4% | –
39 | CC1=CC2=NC(=O)CC(C)(C(=O)N(CC(=O)NC3CCCC3)c3ccccc3F)N2C=C1 (stereo unspecified) | inactive: 14.9% | –
40 | CCn1c2ccccc2c2cc(/C=N/NC(=O)c3ccc(O)cc3)ccc21 | – | inconclusive [inhibitor, single point]
41 | Cc1cccn2c(/C=N/OCc3ccc(F)cc3)c(-c3ccc(Cl)cc3)nc12 | – | inconclusive [inhibitor, partial curve]
42 | Cc1nnc(SCC(=O)NC23CC4CC(CC(C4)C2)C3)n(N)c1=O | – | inconclusive [inhibitor, full curve, poor fit]
43 | O=C(COC(=O)c1ccc(S(=O)(=O)N2CCOCC2)cc1)NCc1cccs1 | inactive: 13.3% | –
44 | COc1ccc(-c2c3c(nc4sc(C(=O)Nc5cc(C)on5)c(N)c24)CCC3)cc1 | – | active: 4.15 µM
45 | O=C(/C=C/c1ccccc1)Nc1cccnc1Cl | inactive: 187% | –
46 | CC(=O)NNc1ncnc2c1cnn2-c1ccc(C)c(C)c1 | inactive: 211% | –
47 | NC(=O)C1(N2CCCCC2)CCN(C(=S)Nc2ccccc2)CC1 | inactive: 22.8% | –
48 | ClC(Cl)=C(c1ccc(Cl)cc1)c1ccc(Cl)cc1 | – | inconclusive [inhibitor, partial curve, poor fit]

Row | Structure (SMILES) | activity change, negative = inhibition | Potency
49 | CC(NCC(=O)Nc1ccccc1C(=O)NC1CC1)c1ccco1 (stereo unspecified) | – | active: 1.65 µM
50 | NC(=O)c1sc2nc(-c3ccco3)ccc2c1N | inactive: 148% | –
51 | Cc1cc(C)cc(N(CC(=O)NC2CCCCC2)C(=O)c2ccc(C)s2)c1 | inactive: -21% | –
52 | Fc1ccc(N2CCN(C(c3cccs3)c3nnnn3CCc3ccccc3)CC2)cc1 (stereo unspecified) | – | active: 13.1 µM
53 | CC(=O)c1ccc(S(=O)(=O)NCC(=O)N2CCN(C/C=C/c3ccccc3)CC2)cc1 | – | active: 11.7 µM
54 | CCn1c(SCC(=O)Nc2nccs2)nnc1-c1ccco1 | – | inconclusive [inhibitor, single point]
55 | CC(C)(C)c1ccc(C(=O)N2CCCC2)s1 | inactive: 84.9% | –
56 | COc1ccc(C2CC(=O)c3cnc(NC(=O)c4ccccc4OC)nc3C2)c(OC)c1 (stereo unspecified) | – | inconclusive [inhibitor, single point]
57 | CN(c1cccc(NC(=O)c2ccc(C(C)(C)C)cc2)c1)S(C)(=O)=O | inactive: 272% | –
58 | Cc1nnsc1S(=O)c1ccccc1Cl (stereo unspecified) | – | inconclusive [inhibitor, single point]
59 | COC(=O)/C=c1/sc2nc3ccccc3n2c1=O | – | inconclusive [inhibitor, full curve, poor fit]
60 | CCOC(=O)C1=C(C)NC2=C(C(=O)CC(c3cccs3)C2)C1c1cccs1 (stereo unspecified) | – | active: 4.15 µM
61 | O=C(Nc1ccc(Cl)cc1)c1ccc(OC2CSC2)cc1 | inactive: 68.1% | –
62 | COC(=O)[C@@]12CCCN1[C@H](c1ccc(-c3ccccc3)cc1)[C@@H]1C(=O)N(C)C(=O)[C@@H]12 | – | active: 7.38 µM
63 | CCc1ccc(Oc2cc(Cl)nc(N)n2)cc1 | inactive: 42.8% | –
64 | NC(=O)Nc1ccc(C(=O)N2CCN(S(=O)(=O)Cc3ccccc3)CC2)cc1 | – | inconclusive [inhibitor, single point]
65 | O=[N+]([O-])C(Br)(CO)CO | inactive: 4.82% | –
66 | Cc1cccc(C)c1NC(=O)c1cc(S(=O)(=O)N2CCOCC2)ccc1F | – | inconclusive [inhibitor, single point]
67 | COc1ccc(OC)c(S(=O)(=O)Nc2cccc(-c3ccc(N4CCCCCC4)nn3)c2)c1 | – | inconclusive [inhibitor, single point]
68 | NNC(=O)c1[nH]c2ccc(Cl)cc2c1-c1ccccc1 | – | inconclusive [inhibitor, partial curve, poor fit]
69 | CN(c1ccccc1)c1nc(-n2ccnc2)nc(-n2ccnc2)n1 | – | inconclusive [inhibitor, partial curve]
70 | Cc1ccc(CNC(=O)c2cn(C)c3ccc(S(=O)(=O)N4CCOCC4)cc3c2=O)cc1 | – | inconclusive [inhibitor, partial curve]
71 | CC(C)N(C(=O)CSc1ccc(S(=O)(=O)N2CCCCC2)cn1)C(C)C | – | inconclusive [inhibitor, partial curve]

Source: PubChem BioAssay AID504832 (National Center for Advancing Translational Sciences (NCATS), 2011)
